Broadly, the % Inhibition is the change of the read-out against control, counted positive when it falls.

Each structure is given as a SMILES string. The whole screen tested about 150,000 compounds, of which about 540 (0.36%) showed an effect of 50% or more. This is one part of the list.

This test concerns Plasmodium falciparum. As to the kind of experiment: Primary screen in NF54 nanoGlo assay, in single point, at 2uM, 72h; a lower Z score goes with more inhibition. Format: functional, Erythrocyte. Conditions: timepoint 72 hour.
Turning to `Cc1ccccc1S(=O)(=O)Nc1ccc(N2CCC(N3CCCCC3)CC2)c(C(=O)O)c1`, the “% Inhibition” value is 1% and the Z score is listed as -0.05.

On to `O=C(Nc1cccc(Cl)c1)c1ccc(N2C(=O)C3C4CCC(C4)C3C2=O)cc1` (stereo not drawn), for which the “% Inhibition” value worked out at 9% and the Z score is -1.32.

On to `CCCN1Cc2cc(Cl)ccc2O[C@@H](C)C1=O`, for which the “% Inhibition” value is listed as -3% and the Z score stood at 0.33.

In the case of `CCn1nccc1CNc1ccc(F)cc1F`, the “% Inhibition” value is recorded as 32% and the Z score is reported as -4.28.

Consider `O=C(Cn1cnc2nc(N3CCCC3)sc2c1=O)Nc1ccc(F)c(Cl)c1`, for which the “% Inhibition” value is -8% and the Z score is on record as 1.31.

On to `Cc1ccc(CCC(=O)N2CCn3c2nc2ccccc23)cc1Cl`, for which the “% Inhibition” value was -10% and the Z score was 1.32.

Turning to `Cc1cc(NC(=O)C(C)N2CCCC2Cn2cccn2)on1` (stereo not drawn), the “% Inhibition” value was -12% and the Z score was 1.01.

With `COc1ccc(-n2nc(C(=O)N3CCOCC3)c(=O)cc2OC)cc1`, the “% Inhibition” value was found to be 41% and the Z score was -5.97.

Turning to `CCC1Oc2cc(S(=O)(=O)N3CCCC(C(=O)NC(C)(C)CC)C3)c(C)cc2NC1=O` (stereo not drawn), the “% Inhibition” value is on record as -21% and the Z score stood at 2.65.

As to `CC(C)N(C[C@H](O)COc1ccccc1)C(C)C`, the “% Inhibition” value is reported as -1% and the Z score was determined as 0.15.

With `O=C(O)c1ccccc1NC(=O)c1cc(=O)[nH]c2ccccc12`, the “% Inhibition” value was 0% and the Z score is listed as 0.03.

As to `COCc1nc(C)cc(N(C)Cc2ccns2)n1`, the “% Inhibition” value was 9% and the Z score is on record as -0.79.

For the compound `CCCn1c(O)c(-c2nc3ccccc3[nH]2)c(=O)c2ccccc21`, the “% Inhibition” value is on record as -19% and the Z score came out at 1.72.

For `CCOc1ccc(Oc2ccc(S(=O)(=O)N3CCOCC3)cc2NC(=O)c2ccc(Cl)cc2)cc1`, the “% Inhibition” value was -14% and the Z score turned out to be 2.27.

Take `Cn1c(Cl)cnc1CN1CCCN(C(=O)CC2CCCC2)CC1`: the “% Inhibition” value is recorded as 2% and the Z score is on record as -0.23.

`CCc1noc(-c2c(C)[nH]c(C)c2S(=O)(=O)Nc2cc(F)ccc2Cl)n1`: the “% Inhibition” value is given as -10% and the Z score came out at 1.97.

For the compound `Cc1c(CC(=O)N2CC[C@H](CN)C2)c2c(n1Cc1ccccc1)CCCC2=O`, the “% Inhibition” value is given as -2% and the Z score is listed as 0.43.

On to `Cc1nn2c(C(F)(F)F)cc(-c3cccnc3)nc2c1-c1ccc(Cl)cc1`, for which the “% Inhibition” value is -4% and the Z score turned out to be 0.63.

On to `Cc1cc(C(=O)NCC(F)(F)C2(O)CCCCC2)c(C)o1`, for which the “% Inhibition” value is listed as -5% and the Z score came out at 0.76.

Take `N[C@H]1C[C@H](c2cc(NCC3CCC(c4nc5ccccc5[nH]4)CC3)ncn2)C1` (stereo partly drawn): the “% Inhibition” value stood at 2% and the Z score is reported as -0.28.

`NC(=O)[C@@H]1COCCN1c1nc(-c2ccccc2)ns1`: the “% Inhibition” value is listed as -5% and the Z score was found to be 0.96.

On to `COC1(CC(=O)Nc2ncn(CC(=O)N(C)C)n2)CCC1`, for which the “% Inhibition” value is reported as 11% and the Z score is -1.45.

As for `C[C@@H](CNS(=O)(=O)CC1CCCC1)Cn1cccn1`, the “% Inhibition” value is given as 16% and the Z score is -2.06.

Take `Cn1ccnc(NCCc2ccccc2N2CCOCC2)c1=O`: the “% Inhibition” value is given as 4% and the Z score is reported as -0.59.

Consider `CC(C)(C)OC(=O)N1CC2CC1C2C(=O)NCC1CCCO1` (stereo not drawn), for which the “% Inhibition” value was determined as 14% and the Z score is -1.67.

For the compound `O=C1NCCCc2[nH]c(C3(CO)CCCC3)nc21`, the “% Inhibition” value was 8% and the Z score is -0.77.

Turning to `CC1(NC(=O)CN2CCOCC2)CCCCC1c1ccc(O)cc1` (stereo not drawn), the “% Inhibition” value is given as -3% and the Z score amounted to 0.32.

As to `COc1ccc(Cl)cc1C(=O)N1CC[C@H](Oc2nc(C)cc(C)n2)C1`, the “% Inhibition” value is recorded as -16% and the Z score is 2.56.

As for `O=C(Nc1ccccc1)c1cccc(Oc2cc(-c3ccc(F)cc3)ncn2)c1`, the “% Inhibition” value was -7% and the Z score came out at 0.94.

As to `O=C(c1cnn(-c2ccccc2)n1)N1CC[C@H](N2C(=O)CNC2=O)C1`, the “% Inhibition” value is on record as -7% and the Z score stood at 1.39.

As to `Cc1n[nH]c(C)c1[C@H](C)NC(=O)c1cn(C)c(C)cc1=O`, the “% Inhibition” value is reported as -2% and the Z score amounted to 0.21.

Turning to `COc1ccc(-n2cccn2)c(-c2cc(-c3ccccn3)nc(N)c2C#N)c1`, the “% Inhibition” value is on record as -20% and the Z score is 1.95.

As to `Cc1ccccc1C1c2ccsc2CCN1C(C)C(=O)N1CCN(C(=O)C(C)C)CC1` (stereo not drawn), the “% Inhibition” value turned out to be 1% and the Z score was -0.1.

Take `O=C(N[C@H]1C[C@H](c2ccccc2)C1)N1CCO[C@@H](CC(F)(F)F)C1`: the “% Inhibition” value is listed as -3% and the Z score worked out at 0.62.

On to `O=C(NCc1ccco1)Nc1ccc2cc[nH]c2c1`, for which the “% Inhibition” value was -39% and the Z score is recorded as 4.56.

Consider `Cc1nc(N2CCC(c3ccccn3)CC2)cc2nncn12`, for which the “% Inhibition” value came out at 3% and the Z score was -0.42.

Consider `Cc1nc(C)c(CN2CCC[C@H](c3cc(C(N)=O)[nH]n3)C2)s1`, for which the “% Inhibition” value is -8% and the Z score is 0.87.

Consider `COc1ccc([C@H]2[C@H](C(=O)NC3CCN(Cc4ccccc4)CC3)CCC(=O)N2C)cc1`, for which the “% Inhibition” value came out at 35% and the Z score is -3.97.

For the compound `COc1cc(NC(=O)Cc2cscn2)c(C(=O)N2CCCCC2)cc1OC`, the “% Inhibition” value is given as -11% and the Z score came to 1.15.

On to `COc1ccccc1CNC(=O)C1CC(=O)N(C)C1c1cccnc1` (stereo not drawn), for which the “% Inhibition” value is reported as -1% and the Z score amounted to 0.1.

With `O=C(Nc1ccc(S(=O)(=O)N2CCc3ccccc32)cc1)N1CCCC1`, the “% Inhibition” value is on record as -9% and the Z score was 1.1.

For `CS(=O)(=O)c1cc(NC(=O)c2ccccc2OCC2CC2)cc(C(=O)O)c1`, the “% Inhibition” value is -14% and the Z score is 1.41.

In the case of `CN1C[C@@H](NC(=O)NCc2ccc(F)cc2)CC1=O`, the “% Inhibition” value is listed as 8% and the Z score is -1.1.

`COc1ccccc1NS(=O)(=O)c1ccc(-c2nnc(C3CC3)o2)o1`: the “% Inhibition” value is 2% and the Z score is -0.27.

For `NC(=O)c1ccc(CN2C(=O)NC3(CCCC3)C2=O)cc1`, the “% Inhibition” value was -14% and the Z score was found to be 2.07.

Consider `O=S(=O)(C1CCOCC1)N1CCN(Cc2ccccc2)C2(CCCCC2)C1`, for which the “% Inhibition” value is -11% and the Z score is reported as 1.49.

`COC[C@H](NC(=O)c1ccc2c(c1)OCCO2)C1CC1`: the “% Inhibition” value turned out to be 10% and the Z score is on record as -0.98.

In the case of `CN1CCN(C(=O)CC[C@H]2CCCN(Cc3sc4ccccc4c3Cl)C2)CC1`, the “% Inhibition” value was -14% and the Z score was 1.26.

In the case of `Cc1cnn(C[C@H](C)NCc2cnc(N3CCOCC3)nc2)c1`, the “% Inhibition” value was found to be 6% and the Z score was -0.92.

As for `Cc1cn(CCn2cnc(-c3ccccc3)c2-c2ccc3ccccc3n2)nn1`, the “% Inhibition” value was determined as 4% and the Z score is listed as -0.51.

`O=C1c2ccccc2C(=O)N1Cc1ncc2ccccn12`: the “% Inhibition” value turned out to be 0% and the Z score is reported as 0.06.

With `CCC(=O)Nc1ccc(N(C)C)c(CN(C[C@H]2CCCO2)C(C)=O)c1`, the “% Inhibition” value is 5% and the Z score was -0.65.

With `C=CCNC(=O)c1cccc(CN2C(=O)C[C@@H](c3ccc(F)cc3)NC2=O)c1`, the “% Inhibition” value is given as -7% and the Z score is listed as 0.82.

As to `CC(C)n1cnnc1CN(C)C1CCN(Cc2ccco2)CC1`, the “% Inhibition” value is 0% and the Z score was -0.01.

These data come from ChEMBL document CHEMBL4888484, “Replenishing the malaria drug discovery pipeline: Screening and hit evaluation of the MMV Hit Generation Library 1 (HGL1) against asexual blood stage Plasmodium falciparum ,using a nano luciferase reporter read-out” (2022).
